Experimental data: PubChem BioAssay AID624171 (National Center for Advancing Translational Sciences (NCATS), 2012)
The campaign covered roughly 410,000 compounds. About 1,200 (0.29%) were called active. The inconclusive results got no clear call from the source; some entries with a clear call stand among them for comparison. Calls come from the whole dose curve; as a rule, active = well fitted activation curve with a large enough effect; inconclusive = small, poorly fitted or top-dose-only effect; inactive = flat fitted curve, though single readings scatter. Potencies of inconclusive entries are doubtful fits and often do not repeat.
Potency is the fitted concentration of half-maximal effect; tags give direction and shape of the fitted curve.

Experiment: qHTS of Nrf2 Activators; note: nearly all actives have a fitted effect of over 65% in size; for activation: % of control where 0% means no effect
Details: AREc32 ARE-luciferase reporter (MCF7-derived line), luminescence, 24 h; activation: at 46.1 µM (top of the series)
Description: Many diseases have some form of oxidative stress injury and ties to inflammation, causing a host of problems for the patient. The antioxidant response element (ARE) plays an important role in alleviating the harmful effects of oxidative stress. The antioxidant response element (ARE) is a transcriptional regulatory element involved in the activation of genes coding for a number of antioxidant proteins and detoxifying enzymes. These enzymes work in concert to protect tissues from oxidative insults and chemical toxicities in human hepatocytes and immune cells. The protective effects of ARE activation are primarily triggered through Nrf2 (NF-E2-related factor) binding to and activating AREs. It is known that Nrf2 controls the production of over 250 antioxidant and detoxification proteins (Hu et al., 2006), thereby protecting tissues by increasing cellular antioxidant content and suppressing inflammatory signaling pathways. The transcription factor Nrf2 is a central link between oxidative chemicals, such as phenolic antioxidants and electrophilic compounds, and the activation of ARE. Nrf2 levels are constitutively low as a consequence of its interaction with Keap1, which targets its degradation (Zipper and Mulcahy, 2002). Electrophiles react with key cysteine residues in Keap1, releasing Nrf2 and allowing its translocation to the nucleus. Once within the nucleus, Nrf2 complexes with coactivators such as p300, and binds to the AREs to induce gene transcription of cytoprotective enzymes, resulting in the prevention of toxicity. Activation of Nrf2 protects tissues by increasing cellular antioxidant content and suppressing inflammatory signaling pathways. Identifying novel and potent Nrf2 activators by using the AREc32 cell line to detect ARE activation by small molecules will lead to the identification and development of probes to study protective pathways in multiple tissues. These specific probes are essential to study the ARE pathway, and eventually to determine whether this pathway does activate genes that could protect against a host of diseases, including cardiovascular diseases, obesity, diabetes, Alzheimer's, and Parkinson's disease.
This project's aim is to identify novel and potent Nrf2 activators by using the AREc32 cell line to detect ARE activation by small molecules, which will lead to the identification and development of probes to study the ARE pathway.
NIH Chemical Genomics Center [NCGC]
NIH Molecular Libraries Probe Centers Network [MLPCN]
Assay Submitter (PI): Curtis Klaassen, University of Kansas Medical Center
5 uL of 1000 cells/well of AREc32_Fluc cells are seeded into 1536-well plate in OPTI-MEM medium with 5% FBS. The plates are incubated overnight at 37 deg C with 5% CO2. Then through pin tool transfer, 23 nL of compounds are added to each well before a 24 hr incubation at 37 deg C with 5% CO2. After the addition of 2.5 uL of Steady-Glo. the plates are kept at RT for 30 min, before they are read on the ViewLux.
In the case of `CCCCCCC=C1CCC(CN2CCCC2)C1=O` (centres undefined), the Potency was inconclusive: 22.4 µM [activator, single point].
With `Oc1cccc2ccc(/C=C/c3c(F)cccc3Cl)nc12` the Potency was active: 1 µM.
In the case of `COc1cccc(-c2cc(C(=O)N/N=C/c3ccco3)c3ccccc3n2)c1`, the “activation” value was inactive: 6.03%.
With `Clc1ccc(-c2nnc(-c3ccco3)o2)cc1` the Potency was inconclusive: 15.8 µM [activator, single point].
For `Oc1ccc(Nc2nc3ccccc3nc2Nc2ccc(O)cc2)cc1`, the Potency was inconclusive: 1.12 µM [activator, full curve, poor fit].
In the case of `Cc1nnc(NC(=O)CCS(=O)(=O)c2ccccc2)s1`, the Potency was inconclusive: 11.2 µM [activator, partial curve].
With `CCOC(=O)c1cc(-c2cccc([N+](=O)[O-])c2)nc2[nH]c(=O)[nH]c(=O)c12` the Potency was inconclusive: 11.2 µM [activator, partial curve, poor fit].
In the case of `Cn1c(N)c(C(=O)COC(=O)c2ncc(Cl)c(Cl)c2Cl)c(=O)n(C)c1=O`, the Potency was inconclusive: 15.8 µM [activator, single point].
In the case of `CC(=O)n1c(C=Nc2ccc(Cl)cc2)c(O)c2ccccc21`, the Potency was inconclusive: 1.78 µM [activator, full curve, poor fit].
With `Cc1ccc2oc(-c3cc(NC(=O)c4ccco4)ccc3Cl)nc2c1` the Potency was inconclusive: 2.51 µM [activator, partial curve, poor fit].
With `C(=N\Nc1nc(-c2ccccc2)cs1)/c1cccnc1` the “activation” value was inactive: 11.4%.
In the case of `C/C(=N\OCc1ccc(C#N)cc1)c1ccc(S(=O)(=O)N(C)C)cc1`, the “activation” value was inactive: 3.08%.
For `C=C1C(=O)[C@]23C[C@H]1CC[C@H]2[C@]1(C)[C@@H](OC(C)=O)CC[C@@](C)(C(=O)OC)[C@H]1C[C@@H]3OC(C)=O`, the Potency was inconclusive: 3.16 µM [activator, single point].
For `OCCC#Cc1c(-c2ccsc2)sc2ccccc12`, the Potency was active: 2.51 µM.
For `S=c1[nH]nc(-c2ccc(Cl)cc2Cl)n1-c1ccc(Cl)cc1`, the “activation” value was inactive: -0.235%.
For `COc1ccc(Cl)cc1-c1nc(SCC(=O)NCC2CCCO2)n[nH]1` (centres undefined), the Potency was inconclusive: 11.2 µM [activator, single point].
For `O=C(N/N=C/C(Cl)=C/c1ccccc1)c1cnccn1`, the Potency was active: 11.2 µM.
In the case of `O=C(NCc1ccccc1)c1c(Cl)nc(Cl)c(Cl)c1Cl`, the Potency was active: 10 µM.
For `O=[N+]([O-])c1cc(-n2cnnn2)ccc1N1CCC(Cc2ccccc2)CC1`, the “activation” value was inactive: -0.012%.
With `CCNc1ccc(-c2nc(-c3ccco3)no2)cc1[N+](=O)[O-]` the Potency was inconclusive: 1 µM [activator, full curve, poor fit].
With `COc1ccc(Cl)c(Cn2c(NCc3ccco3)nc3c2c(=O)n(C)c(=O)n3C)c1` the “activation” value was inactive: 4.59%.
For `Cc1nc2ccccc2n1CC(=O)NC1CCCCCC1`, the “activation” value was inactive: 0.539%.
With `CCn1nnnc1SCC(=O)c1cc(Cl)ccc1OC` the Potency was inconclusive: 35.5 µM [activator, partial curve, poor fit].
For `CCc1ccc2oc(-c3cc(N)ccc3O)nc2c1`, the Potency was active: 4.47 µM.
For `Cc1ccc(N2C(=O)CSC23C(=O)N(CC(=O)NC2CCCCC2)c2ccccc23)cc1` (centres undefined), the “activation” value was inactive: -0.16%.
For `CC(C)OCCCNC(=O)c1ccc(-n2c(-c3ccccc3)cc3c2CCCC3)cc1`, the Potency was inconclusive: 11.2 µM [activator, partial curve, poor fit].
In the case of `CCOc1ccc(-c2nnc(SCC(=O)NCCC(C)C)nc2-c2ccc(OCC)c(OC)c2)cc1OC`, the “activation” value was inactive: 0.0665%.
In the case of `Cc1nn(-c2ccccc2)c(Cl)c1/C=C(\C#N)C(=O)NC(C)C`, the Potency was inconclusive: 14.1 µM [activator, partial curve, poor fit].
In the case of `O=C(COc1ccc2ccc(=O)oc2c1)Nc1cccc(S(=O)(=O)N2CCCCC2)c1`, the “activation” value was inactive: -0.23%.
In the case of `Cn1c(=O)cc(OCCCC(=O)N2CCCCC2)c2ccccc21`, the “activation” value was inactive: 6.74%.
For `CCCC(NS(=O)(=O)c1ccc(-c2ccc(=O)[nH]n2)s1)c1cccs1` (centres undefined), the “activation” value was inactive: 6.6%.
For `COc1ccc(C(=O)N2CCN(c3ccccc3)CC2)cc1S(=O)(=O)N1CCCC1`, the “activation” value was inactive: 2.81%.
For `O=C(/C=C(/c1ccc(Cl)cc1)n1cncn1)c1ccccc1`, the Potency was inconclusive: 14.1 µM [activator, single point].
For `Cc1oc(-c2ccc(Cl)cc2)nc1CS(=O)CC(=O)NCc1ccc(Cl)cc1` (centres undefined), the “activation” value was inactive: -0.502%.
For `CN(C)CCCN(C(=O)CCS(=O)(=O)c1ccccc1)c1nc2cc3c(cc2s1)OCO3`, the Potency was inconclusive: 5.62 µM [activator, single point].
With `CCOc1ccc(NC(=O)C2Cc3ccccc3N2C(=O)c2ccccc2)cc1` (centres undefined) the “activation” value was inactive: -0.0416%.
With `Nc1cc(Cc2ccccc2)ccc1O` the Potency was inconclusive: 15.8 µM [activator, single point].
In the case of `O=C1C=C(C#Cc2ccccc2)C[C@@H](c2ccc(F)cc2)C1`, the Potency was active: 8.91 µM.
For `CC(Oc1ccccc1)C(=O)Nc1oc(-c2ccco2)c(-c2ccco2)c1C#N` (centres undefined), the Potency was inconclusive: 17.8 µM [activator, single point].
With `CC(=O)c1sc(C(C)(C)C)cc1NC(=O)/C=C/C(=O)O` the Potency was active: 15.8 µM.
In the case of `O=C(/C=C/c1ccccc1)NC(NC(=S)Nc1ccc(Cl)cc1)C(Cl)(Cl)Cl` (centres undefined), the “activation” value was inactive: 3.28%.
In the case of `Nc1ccccc1SC(C[N+](=O)[O-])c1ccccc1` (centres undefined), the Potency was inconclusive: 20 µM [activator, single point].
In the case of `O=[N+]([O-])c1ccc(F)cc1OCc1nc(-c2cccs2)no1`, the Potency was inconclusive: 2.82 µM [activator, full curve, poor fit].
For `C/C(=C\c1ccco1)C1C(C#N)=C(N)Oc2n[nH]c(-c3ccccc3)c21` (centres undefined), the Potency was inconclusive: 17.8 µM [activator, single point].
With `CCOc1ccc(N(CC(=O)Nc2ccc(OC)cc2)S(=O)(=O)c2c(C)[nH]c(=O)[nH]c2=O)cc1` the “activation” value was inactive: -0.235%.
With `O=c1cc(NCc2ccco2)c2ccccc2o1` the Potency was active: 12.6 µM.
For `Clc1cccc(/C=N/Nc2nc(Cl)nc3ccccc23)c1`, the Potency was inconclusive: 20 µM [activator, single point].
With `COc1ccc(Br)cc1CN(C)CC(=O)Nc1cc(Cl)ccc1Cl` the “activation” value was inactive: -0.0585%.
For `Cc1cccc(CSc2cn(CC(=O)N3CCCC3)c3ccccc23)c1`, the “activation” value was inactive: 5.84%.
